Consider 44 compounds from PubChem BioAssay AID1508624 (National Center for Advancing Translational Sciences (NCATS), 2021).

In all, about 48,000 compounds went through this assay and about 120 (0.25%) were called active. About 4% were inconclusive and are not listed. Calls come from the whole dose curve; as a rule, active = well fitted activation curve with a large enough effect; inconclusive = small, poorly fitted or top-dose-only effect, or another doubt; inactive = no such curve, though single readings can be large or run the other way. The list shows a part of the results.

The assay can be described thus: Primary qHTS for Identification of Small Molecule Activators of Huntingtin-Antisense Promoter Activity. Note: nearly all actives have a fitted effect of over 55% in size. The conditions noted are these: HEK293 HTT-AS promoter firefly luciferase reporter, 24 h; series mostly up to 57.5 µM; activity change, positive = activation: at the top concentration. The essentials: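 Firefly luciferase readout (Dual-Glo, 10 min RT) after 24 h, 37 °C compound exposure (final up to 57.5 uM) of HEK293 reporter cells cultured 24 h beforehand; PTC124 at 50 uM final as control inhibitor; activity scaled vehicle 0%, zero RLU -100%.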
(In general: Quantitative high-throughput screening tests each substance at several concentrations.)
`O=C(NC1(C(F)(F)F)N=C(c2ccccc2)N(C2CCCCC2)C1=O)c1ccc(F)cc1` (centres undefined): the “activity change, positive = activation” value was inactive: -14.2%.

For the compound `Cc1cc(C)n(CCc2nc3c4ccccc4nc(SCc4ccc(Cl)cc4)n3n2)n1`, the “activity change, positive = activation” value was inactive: -4.31%.

In the case of `Cn1ccc2cc(S(=O)(=O)N3CCCC(C(=O)NCc4ccc(F)cc4)C3)ccc21` (centres undefined), the “activity change, positive = activation” value was inactive: -28.7%. Consider `C=CCSCC1Nc2cc(Cl)c(S(N)(=O)=O)cc2S(=O)(=O)N1` (centres undefined), for which the “activity change, positive = activation” value is inactive: -10.6%.

With `CCOc1ccccc1-c1noc(CCCC(=O)Nc2cccc(C(F)(F)F)c2)n1`, the “activity change, positive = activation” value is inactive: -5.89%. For `O=C(CSc1nc(-c2ccc(F)cc2)nc2c1Cc1ccccc1O2)Nc1cccc(C(=O)O)c1`, the “activity change, positive = activation” value is inactive: -6.97%. The value for `N#Cc1cccc(NC(=O)C2CCN(c3cnccn3)CC2)c1` was inactive: -17.8%. Consider `CC(=O)Nc1ccc(NC(=O)c2cc3c(=O)n(Cc4cccnc4)ccc3nc2C)cc1`, for which the “activity change, positive = activation” value was inactive: -6.33%. For `Cc1ccc2c(c1)c(=O)c(C(=O)c1ccccc1)cn2Cc1ccccc1F`, the “activity change, positive = activation” value was inactive: -26.5%. Next, `CCOc1cccc(C(=O)Nc2nnc(S(=O)(=O)N(C)c3ccc(C)cc3)s2)c1`: inactive: -32%; `COc1ccc(NC(=O)CC2C(=O)N(c3ccccc3)C(=O)N2CCC2=CCCCC2)cc1` (centres undefined): inactive: -22.6%. `COc1cc(NC(=O)C2CCN(S(=O)(=O)c3c(C)noc3/C=C/c3cccs3)CC2)cc(OC)c1`: the “activity change, positive = activation” value was inactive: -20.2%. For `COc1ccc(S(=O)(=O)N(CC(=O)Nc2ccc(OC)cc2OC)c2ccc(Cl)cc2)cc1`, the “activity change, positive = activation” value was inactive: -28.5%. The value for `CCN1C(=O)c2ccccc2S(=O)c2ccc(C(=O)NCc3ccc(C)cc3)cc21` (centres undefined) was inactive: -25.6%; that for `Cc1c(CNC2CCC(C)CC2)c(C(=O)O)c(C)n1Cc1ccccc1F` (centres undefined) was inactive: -14%; that for `COc1ccc(/C=C(/C#N)c2nc(-c3cc4ccccc4oc3=O)cs2)cc1` was inactive: 1.14%.

Turning to `CCC1CN(C(=O)Nc2ccccc2C(F)(F)F)c2ccccc2O1` (centres undefined), the “activity change, positive = activation” value was inactive: 1.8%. Next, `CCOc1ccccc1C1C(C(N)=O)=C(C)Nc2nc(-c3ccccc3Cl)nn21` (centres undefined): inactive: -6.86%; `Cc1cccc(N2CC(c3nc4ccc(C)cc4[nH]3)CC2=O)c1` (centres undefined): inactive: -5.26%; `COc1ccccc1-c1nc2c(c(SCC(=O)Nc3ccccc3F)n1)Cc1c(CO)cnc(C)c1O2`: inactive: -28.1%. Next, `COc1ccccc1N1CCN(CCCNC(=O)c2nnc(Cc3c(F)cccc3Cl)o2)CC1`: inactive: -19.3%; `COc1ccccc1C(=O)Nc1c(C(=O)N2CCN(c3ccc(F)cc3)CC2)oc2ccccc12`: inactive: 0.607%. The value for `CCN1CCN(CCCNC(=O)Cn2c(-c3cccs3)cc3ccccc32)CC1` was inactive: -6.81%; that for `Cc1ccc2c(=O)cc(C(=O)N(Cc3ccccc3Cl)C3CCS(=O)(=O)C3)oc2c1` (centres undefined) was inactive: -4.3%; that for `COc1ccc(-c2cc(-c3ccccc3)c(C#N)c(SCC(O)CS(=O)(=O)Cc3ccccc3)n2)cc1` (centres undefined) was inactive: -15.2%. Regarding `CC(O)CNC(=O)C(=O)Nc1c2c(nn1-c1ccc(Cl)cc1)CSC2` (centres undefined), the “activity change, positive = activation” value was inactive: -16.5%. The value for `COc1ccc(NC(=O)C2CCCN(C(=O)c3cnn(-c4ccccc4)c3-n3cccc3)C2)cc1` (centres undefined) was inactive: -48%; that for `CCOc1ccc(CCNC(=O)CS(=O)(=O)Cc2nc(-c3cccc(Cl)c3)oc2C)cc1` was inactive: -26.7%; that for `Cc1ccc(C(=O)NCC(=O)OCc2cc(=O)n3c(C)csc3n2)cc1` was inactive: 0.555%. In the case of `CCOC(=O)CCN(c1ccccc1)S(=O)(=O)c1cc(-c2cc(C)no2)ccc1C`, the “activity change, positive = activation” value is inactive: -31.1%. The value for `CCc1cc2c(cc3c(=O)n(CC(=O)NC4CCCCC4)nc(CC)n32)s1` was inactive: 1.53%; that for `Cc1cn(C)c(CC(=O)N2CCN(c3cccc(C(F)(F)F)c3)CC2)c1C(=O)O` was inactive: -20.5%; that for `Cc1cc(C)c2oc(C(=O)Nc3c(C)n(C)n(-c4ccccc4)c3=O)cc(=O)c2c1` was inactive: 13.8% [at 11.5 µM, percent change from vehicle, -100% = no light]. The value for `O=C(NCC(c1cccnc1)N1CCc2ccccc21)c1ccc(F)c(F)c1` (centres undefined) was inactive: -26.6%; that for `CC(=O)N1CCc2c(sc3c2c(=O)n(-c2ccccc2C)c(=O)n3CC(=O)c2ccccc2)C1` was inactive: -36.1%; that for `Cc1ccc(C)c(NC(=O)Cn2c(=O)n(-c3ccccc3C)c(=O)c3c2c2cc(C)ccc2n3C)c1` was inactive: -18.3%.

With `CC(C)n1cc2c(c1-c1ccccc1Cl)c(=O)n(C)c(=O)n2C`, the “activity change, positive = activation” value was inactive: -13.8%. Consider `Cc1cccc(C(=O)Nc2cccc(OCc3cc(=O)n4cc(C)sc4n3)c2)c1`, for which the “activity change, positive = activation” value is inactive: -4.55%. The value for `Cc1ccc(C(C)C)c(OCC(=O)NCC2(N3CCOCC3)CCCCC2)c1` was inactive: -37.9%. Consider `Cc1ccc(-n2cc3c(c2-c2ccccc2Br)c(=O)n(C)c(=O)n3C)cc1N`, for which the “activity change, positive = activation” value is inactive: -12.1%. The value for `Cc1ccc(CNS(=O)(=O)c2ccc(-c3cnc(C4CC4)o3)cc2)cc1` was inactive: -24.3%. The value for `CCc1cccc(NC(=O)Cn2c(=O)c(C(F)(F)F)nc3ccccc32)c1` was inactive: 9.18%. As to `NC(=O)c1cccc(N)c1`, the “activity change, positive = activation” value is inactive: -6.39%. As for `Cc1cccc(CSc2nc3cc(C(=O)NC4CCCC4)ccc3c(=O)n2Cc2ccccc2)c1`, the “activity change, positive = activation” value was inactive: -4.96%.
